# Source: the supplement of paper PMC8728848
# This is one part of the list.
# Columns and labels:
# Experiment in all cases: glycan array binding signal (z-score within array); higher = stronger binding
# Settings in all cases: glycan notation: IUPAC condensed, linker removed
# [1] = molecular target: Glc(b1-6)Glc
# Procedure, shortened: (§1)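 Glycan array binding is given as a within-array Z-score, which can be read as non-binding when negative. The arrays, 3228 of them, came from the Consortium for Functional Glycomics database and were retained only where the protein sequence was available. Z-scores were averaged across arrays of the same protein sequence at different concentrations or buffers and across linkers.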
# [2] = molecular target: GlcA(b1-3)Gal
# Procedure, shortened: as §1
# [3] = molecular target: GlcA(b1-3)GlcNAc
# Procedure, shortened: as §1
# [4] = molecular target: GlcA(b1-6)Gal
# Procedure, shortened: as §1
# [5] = molecular target: GlcA3S(b1-3)Gal(b1-4)GlcNAc(b1-2)Man
# Procedure, shortened: as §1
# [6] = molecular target: GlcA3S(b1-3)Gal(b1-4)GlcNAc(b1-3)Gal(b1-4)Glc
# Procedure, shortened: as §1
# [7] = molecular target: GlcNAc(a1-3)Gal(b1-4)GlcNAc
# Procedure, shortened: as §1
# [8] = molecular target: GlcNAc(a1-4)Gal(b1-3)GlcNAc
# Procedure, shortened: as §1
# [9] = molecular target: GlcNAc(a1-4)Gal(b1-4)GalNAc
# Procedure, shortened: as §1
# [10] = molecular target: GlcNAc(a1-4)Gal(b1-4)GlcNAc
# Procedure, shortened: as §1
# [11] = molecular target: GlcNAc(a1-4)Gal(b1-4)GlcNAc(b1-3)Gal(b1-4)Glc
# Procedure, shortened: as §1
# [12] = molecular target: GlcNAc(a1-4)Gal(b1-4)GlcNAc(b1-3)Gal(b1-4)GlcNAc
# Procedure, shortened: as §1
# [13] = molecular target: GlcNAc(a1-4)Gal(b1-4)GlcNAc(b1-3)Gal(b1-4)GlcNAc(b1-3)Gal(b1-4)GlcNAc
# Procedure, shortened: as §1
# [14] = molecular target: GlcNAc(a1-4)Gal(b1-4)GlcNAc(b1-3)Gal(b1-4)[Fuc(a1-3)]GlcNAc(b1-3)Gal(b1-4)[Fuc(a1-3)]GlcNAc
# Procedure, shortened: as §1
# [15] = molecular target: GlcNAc(a1-6)Gal(b1-4)GlcNAc
# Procedure, shortened: as §1
# [16] = molecular target: GlcNAc(b1-2)Gal(b1-3)GalNAc
# Procedure, shortened: as §1
# [17] = molecular target: GlcNAc(b1-2)Man(a1-3)[GlcNAc(b1-2)Man(a1-6)]Man(b1-4)GlcNAc(b1-4)GlcNAc
# Procedure, shortened: as §1
# [18] = molecular target: GlcNAc(b1-2)Man(a1-3)[GlcNAc(b1-2)Man(a1-6)]Man(b1-4)GlcNAc(b1-4)[Fuc(a1-6)]GlcNAc
# Procedure, shortened: as §1
# [19] = molecular target: GlcNAc(b1-2)Man(a1-3)[GlcNAc(b1-4)][GlcNAc(b1-2)Man(a1-6)]Man(b1-4)GlcNAc(b1-4)GlcNAc
# Procedure, shortened: as §1
# [20] = molecular target: GlcNAc(b1-2)Man(a1-3)[GlcNAc(b1-4)][GlcNAc(b1-2)Man(a1-6)]Man(b1-4)GlcNAc(b1-4)[Fuc(a1-6)]GlcNAc
# Procedure, shortened: as §1
# [21] = molecular target: GlcNAc(b1-2)[GlcNAc(b1-4)]Man(a1-3)[GlcNAc(b1-2)Man(a1-6)]Man(b1-4)GlcNAc(b1-4)GlcNAc
# Procedure, shortened: as §1
# [22] = molecular target: GlcNAc(b1-2)[GlcNAc(b1-4)]Man(a1-3)[GlcNAc(b1-4)][GlcNAc(b1-2)Man(a1-6)]Man(b1-4)GlcNAc(b1-4)GlcNAc
# Procedure, shortened: as §1
# [23] = molecular target: GlcNAc(b1-2)[GlcNAc(b1-4)]Man(a1-3)[GlcNAc(b1-4)][GlcNAc(b1-2)[GlcNAc(b1-6)]Man(a1-6)]Man(b1-4)GlcNAc(b1-4)GlcNAc
# Procedure, shortened: as §1
# [24] = molecular target: GlcNAc(b1-2)[GlcNAc(b1-4)]Man(a1-3)[GlcNAc(b1-4)][GlcNAc(b1-2)[GlcNAc(b1-6)]Man(a1-6)]Man(b1-4)GlcNAc(b1-4)[Fuc(a1-6)]GlcNAc
# Procedure, shortened: as §1
# [25] = molecular target: GlcNAc(b1-2)[GlcNAc(b1-6)]Man(a1-6)[GlcNAc(b1-2)Man(a1-3)]Man(b1-4)GlcNAc(b1-4)GlcNAc
# Procedure, shortened: as §1
# [26] = molecular target: GlcNAc(b1-2)[GlcNAc(b1-6)]Man(a1-6)[GlcNAc(b1-2)Man(a1-3)]Man(b1-4)GlcNAc(b1-4)[Fuc(a1-6)]GlcNAc
# Procedure, shortened: as §1
# [27] = molecular target: GlcNAc(b1-2)[GlcNAc(b1-6)]Man(a1-6)[GlcNAc(b1-4)][GlcNAc(b1-2)Man(a1-3)]Man(b1-4)GlcNAc(b1-4)GlcNAc
# Procedure, shortened: as §1
# [28] = molecular target: GlcNAc(b1-3)Fuc
# Procedure, shortened: as §1
# [29] = molecular target: GlcNAc(b1-3)Gal
# Procedure, shortened: as §1
# [30] = molecular target: GlcNAc(b1-3)Gal(b1-3)GalNAc
# Procedure, shortened: as §1
# [31] = molecular target: GlcNAc(b1-3)Gal(b1-4)Glc
# Procedure, shortened: as §1
# [32] = molecular target: GlcNAc(b1-3)Gal(b1-4)GlcNAc
# Procedure, shortened: as §1
# [33] = molecular target: GlcNAc(b1-3)Gal(b1-4)GlcNAc(b1-2)Man(a1-3)[GlcNAc(b1-3)Gal(b1-4)GlcNAc(b1-2)Man(a1-6)]Man(b1-4)GlcNAc(b1-4)GlcNAc
# Procedure, shortened: as §1
# [34] = molecular target: GlcNAc(b1-3)Gal(b1-4)GlcNAc(b1-2)Man(a1-3)[GlcNAc(b1-3)Gal(b1-4)GlcNAc(b1-2)Man(a1-6)]Man(b1-4)GlcNAc(b1-4)[Fuc(a1-6)]GlcNAc
# Procedure, shortened: as §1
# [35] = molecular target: GlcNAc(b1-3)Gal(b1-4)GlcNAc(b1-2)[GlcNAc(b1-3)Gal(b1-4)GlcNAc(b1-6)]Man(a1-6)[GlcNAc(b1-3)Gal(b1-4)GlcNAc(b1-2)Man(a1-3)]Man(b1-4)GlcNAc(b1-4)GlcNAc
# Procedure, shortened: as §1
# [36] = molecular target: GlcNAc(b1-3)Gal(b1-4)GlcNAc(b1-3)Gal(b1-4)GlcNAc
# Procedure, shortened: as §1
# [37] = molecular target: GlcNAc(b1-3)Gal(b1-4)GlcNAc(b1-3)Gal(b1-4)GlcNAc(b1-2)Man(a1-3)[GlcNAc(b1-3)Gal(b1-4)GlcNAc(b1-3)Gal(b1-4)GlcNAc(b1-2)Man(a1-6)]Man(b1-4)GlcNAc(b1-4)GlcNAc
# Procedure, shortened: as §1
binder,measurement,setting,value
LecRKVI.2 (protein) RTTTNFAFRGFNGNQSKIRIEGAAMIKPDGLLRLTDRKSNVTGTAFYHKPVRLLNRNSTNVTIRSFSTSFVFVIIPSSSSNKGFGFTFTLSPTPYRLNAGSAQYLGVFNKENNGDPRNHVFAVEFDTVQGSRDDNTDRIGNDIGLNYNSRTSDLQEPVVYYNNDDHNKKEDFQLESGNPIQALLEYDGATQMLNVTVYPARLGFKPTKPLISQHVPKLLEIVQEEMYVGFTASTGKGQSSAHYVMGWSFSSGGERPIADVLILSELPPPPPNKAKKEGLNS,glycan array binding signal (z-score),[1],-0.209
same,glycan array binding signal (z-score),[2],-0.486
same,glycan array binding signal (z-score),[3],-0.382
same,glycan array binding signal (z-score),[4],-0.282
same,glycan array binding signal (z-score),[5],-0.393
same,glycan array binding signal (z-score),[6],-0.486
same,glycan array binding signal (z-score),[7],-0.415
same,glycan array binding signal (z-score),[8],-0.395
same,glycan array binding signal (z-score),[9],-0.337
same,glycan array binding signal (z-score),[10],-0.231
same,glycan array binding signal (z-score),[11],-0.446
same,glycan array binding signal (z-score),[12],-0.353
same,glycan array binding signal (z-score),[13],-0.386
same,glycan array binding signal (z-score),[14],0.026
same,glycan array binding signal (z-score),[15],-0.32
same,glycan array binding signal (z-score),[16],-0.006
same,glycan array binding signal (z-score),[17],-0.271
same,glycan array binding signal (z-score),[18],-0.243
same,glycan array binding signal (z-score),[19],-0.349
same,glycan array binding signal (z-score),[20],-0.352
same,glycan array binding signal (z-score),[21],-0.464
same,glycan array binding signal (z-score),[22],-0.397
same,glycan array binding signal (z-score),[23],0.257
same,glycan array binding signal (z-score),[24],-0.33
same,glycan array binding signal (z-score),[25],-0.329
same,glycan array binding signal (z-score),[26],-0.29
same,glycan array binding signal (z-score),[27],-0.379
same,glycan array binding signal (z-score),[28],-0.233
same,glycan array binding signal (z-score),[29],-0.322
same,glycan array binding signal (z-score),[30],-0.282
same,glycan array binding signal (z-score),[31],-0.366
same,glycan array binding signal (z-score),[32],-0.378
same,glycan array binding signal (z-score),[33],-0.318
same,glycan array binding signal (z-score),[34],-0.326
same,glycan array binding signal (z-score),[35],-0.33
same,glycan array binding signal (z-score),[36],-0.415
same,glycan array binding signal (z-score),[37],-0.121
